# The list shows a part of the results. At the low end of the ranking the order means little.
# Biological target: T1, ETS1 (UniProt P14921)
# T1 sequence: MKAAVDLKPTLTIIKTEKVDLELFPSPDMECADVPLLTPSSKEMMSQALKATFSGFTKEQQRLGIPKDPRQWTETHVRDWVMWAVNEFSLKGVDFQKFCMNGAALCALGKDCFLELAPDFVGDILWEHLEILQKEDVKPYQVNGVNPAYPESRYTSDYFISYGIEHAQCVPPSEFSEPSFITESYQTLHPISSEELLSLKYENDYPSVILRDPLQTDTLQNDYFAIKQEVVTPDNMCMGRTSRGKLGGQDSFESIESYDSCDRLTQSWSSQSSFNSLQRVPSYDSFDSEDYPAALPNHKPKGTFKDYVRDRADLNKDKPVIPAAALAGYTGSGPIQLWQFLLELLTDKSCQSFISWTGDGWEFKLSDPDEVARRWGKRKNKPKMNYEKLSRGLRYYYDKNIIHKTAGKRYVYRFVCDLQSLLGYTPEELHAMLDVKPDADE
# Test: custom PBM
# Conditions: custom protein-binding microarray; buffer, salt, pH and temperature not stated; high values mean tight binding; double strand, one strand shown
row,Sequence,binding signal (log fluorescence intensity)
1,CAGCATAGGACTTCTTCCGTGAAGCAATTGATAACCGTCTTGATTCGCTTGACGCTGCTG,8.66
2,CACAATTTTAACAGTAATGTAGCACGCGTAACTCCTGTCTTGATTCGCTTGACGCTGCTG,8.24
3,CACAATGTTTACAGTAATGTAGCACGCGTAACTCCTGTCTTGATTCGCTTGACGCTGCTG,8.47
4,CTGGGACTTGACCCAACTCAGCCACGTGGGTCGTTTGTCTTGATTCGCTTGACGCTGCTG,8.27
5,AACAATTTTTACAGTAATGTAGCACGCGTAACTCCTGTCTTGATTCGCTTGACGCTGCTG,8.25
6,GATTAATTGCTGCCCTTATTCGCACGTGCCATAACAGTCTTGATTCGCTTGACGCTGCTG,8.19
7,TCCGGCTACCAGCTCCACCCACTTCAGGCCTTGTACGTCTTGATTCGCTTGACGCTGCTG,8.09
8,TGTCGGATAAGGGAATGTAGATCACGTGAATGAAAAGTCTTGATTCGCTTGACGCTGCTG,8.17
9,CTGGGACTTGACACAACTCTGCCACGTGGGTCGTTTGTCTTGATTCGCTTGACGCTGCTG,8.38
10,GGAAAAAGGCCCAGGGTAAGACCGGAAGTGGGCTTAGTCTTGATTCGCTTGACGCTGCTG,12
11,TGTCGGGTGAGGGAATGTAGATCACGTGAATGAAAAGTCTTGATTCGCTTGACGCTGCTG,8.08
12,GGAAAAAGGCCCAGGGTAACACCGGAAGTGGGCTTTGTCTTGATTCGCTTGACGCTGCTG,12.1
13,TGTCGGGTAAGGGAATGTAGATCAGGTGAATGAAAAGTCTTGATTCGCTTGACGCTGCTG,8.18
14,CGGAAGTGTCGTAAACGTCCGATATCCGGTTCTTCTGTCTTGATTCGCTTGACGCTGCTG,12.2
15,CAGCATAGGACTTCTTTCCTGAAGCAATTGATAACCGTCTTGATTCGCTTGACGCTGCTG,8.34
16,GCTGCTGCGGTGCATACCCCACCGGATGTGGCCCCGGTCTTGATTCGCTTGACGCTGCTG,10.3
17,GTGTATAGGATCCCATCCAACACACGTGTAAAAATGGTCTTGATTCGCTTGACGCTGCTG,8.14
18,TCCGGCTACCAGCTCCACCCACTTCAGGCCTCGTAGGTCTTGATTCGCTTGACGCTGCTG,8.2
19,GTGTATAGGCTCCCATCCAACACACGTGTTAAAATGGTCTTGATTCGCTTGACGCTGCTG,8.22
20,TACTGACTTATATGTGCGAATGCACATGAATAGACCGTCTTGATTCGCTTGACGCTGCTG,8.39
21,TGTCGGGTAAGGGAATGTAGAACACGTGAATGAAAAGTCTTGATTCGCTTGACGCTGCTG,8.46
22,CGGAAGTGTCGTAAACGTCGGATATCCGCTTCTTCTGTCTTGATTCGCTTGACGCTGCTG,10.1
23,GATTAATTTCTGCCCTTATTCGCACGTGCCATAACGGTCTTGATTCGCTTGACGCTGCTG,8.18
24,CACAATTTTTACAGTAATGTTGCACGCGTAACTCCTGTCTTGATTCGCTTGACGCTGCTG,8.18
25,TAAAGGGAAGACGGTTGTGGGAGTTCCGGGTATTAAGTCTTGATTCGCTTGACGCTGCTG,8.37
26,GGGTATAGGATCCCATCCAACACACGTGTTAAAATGGTCTTGATTCGCTTGACGCTGCTG,8.44

row,Sequence,binding signal (log fluorescence intensity)
1,GGAAAAAGGCCCAGGGTAACACCGGAAGAGGGCTTAGTCTTGATTCGCTTGACGCTGCTG,9.85
2,TGTCGGGTAAGGGAAGGTAGATCACGTGAATGAAAAGTCTTGATTCGCTTGACGCTGCTG,8.2
3,TGCCGGGTAAGGGAATGTAGATCACGTGAATGAAAAGTCTTGATTCGCTTGACGCTGCTG,8.06
4,GTGTATAGGTTCCCATCCAACACACGTGTTAAAATGGTCTTGATTCGCTTGACGCTGCTG,8.15
5,TATAGGGAAGACGGTTGTGGTAGTTCCGGGTATTAAGTCTTGATTCGCTTGACGCTGCTG,8.48
6,GATTACTTTCTGCCCTTATTCGCACGTGCCATAACAGTCTTGATTCGCTTGACGCTGCTG,8.18
7,GGAAAAAGGCCCAGGGTAACACCGGAAGTGGGGTTAGTCTTGATTCGCTTGACGCTGCTG,12
8,TAAAGGGAAGACGGTTGTGGTAGTCCCGGGTATTAAGTCTTGATTCGCTTGACGCTGCTG,8.14
9,GGAAAAAGGCCCAGGGGAACACCGGAAGTGGGCTTAGTCTTGATTCGCTTGACGCTGCTG,12.1
10,GGAAAAAAGCCCAGGGTAACACCGGAAGTGGGCTTAGTCTTGATTCGCTTGACGCTGCTG,12.1
11,CACATTTTTTACAGTAATGTAGCACGCGTAACTCCTGTCTTGATTCGCTTGACGCTGCTG,8.09
12,GTGTATAGGATCCCATCCAAGACACGTGTTAAAATGGTCTTGATTCGCTTGACGCTGCTG,8.2
13,CACAATTTGTACAGTAATGTAGCACGCGTAACTCCTGTCTTGATTCGCTTGACGCTGCTG,8.19
14,GTGTATAGGATCCCATCCAACACACGTGTTAAAGTGGTCTTGATTCGCTTGACGCTGCTG,8.22
15,TAAAGGGAAGACGGTTGTGGTAGCTCCGGGTATTAAGTCTTGATTCGCTTGACGCTGCTG,8.28
16,TACTGACTTATATATGTGAATGCACATGAATAGACCGTCTTGATTCGCTTGACGCTGCTG,8.27
17,CGGAAGTGTCGTATACGTCGGATATCCGGTTCTTCTGTCTTGATTCGCTTGACGCTGCTG,11.6
18,GCTGCTGCGGTGCATACCCCACCGGATGTGACCTCGGTCTTGATTCGCTTGACGCTGCTG,9.97
19,CTGGGACTTGACCCCACTCTGCCACGTGGGTCGTTTGTCTTGATTCGCTTGACGCTGCTG,8.14
20,CCGAAGTGTCGTAAACGTCGGATATCCGGTTCTTCTGTCTTGATTCGCTTGACGCTGCTG,12
21,CGGAAGTGTCGTAAACGTCGGATATCCGGTTCCTCTGTCTTGATTCGCTTGACGCTGCTG,12
22,TCTGGCTACCAGCTCCACCCACTTCAGGCCTTGTAGGTCTTGATTCGCTTGACGCTGCTG,8.26
23,CAGCATAGGACTTCTTCCCTGCAGCAATTGATAACCGTCTTGATTCGCTTGACGCTGCTG,8.25
24,GATTAATTTCTGCCCTTACTCGCACGTGCCATAACAGTCTTGATTCGCTTGACGCTGCTG,8.27
25,TAAAGGGAAGACGGTTGTGGTAGTTCCTGGTATTAAGTCTTGATTCGCTTGACGCTGCTG,8.29
26,GCTGCTGCGGTGCATCCCCCACCGGATGTGACCCCGGTCTTGATTCGCTTGACGCTGCTG,10.8
